The text below walks through data of PubChem BioAssay AID360 (National Center for Advancing Translational Sciences (NCATS), 2006).

Hit rate of the full screen: of about 48,000 compounds, about 550 (1.1%) were called active. About 4% were inconclusive and are not listed. No stated cut-off is given here; in the data, active means potency below about 15 µM; inconclusive means mostly about 16 µM to 33 µM; inactive means weaker than that. The list shows a part of the results.
Potency means the concentration at half of the fitted maximal effect.

Chain of UniProt P04062 (P04062 whole entry, looked up): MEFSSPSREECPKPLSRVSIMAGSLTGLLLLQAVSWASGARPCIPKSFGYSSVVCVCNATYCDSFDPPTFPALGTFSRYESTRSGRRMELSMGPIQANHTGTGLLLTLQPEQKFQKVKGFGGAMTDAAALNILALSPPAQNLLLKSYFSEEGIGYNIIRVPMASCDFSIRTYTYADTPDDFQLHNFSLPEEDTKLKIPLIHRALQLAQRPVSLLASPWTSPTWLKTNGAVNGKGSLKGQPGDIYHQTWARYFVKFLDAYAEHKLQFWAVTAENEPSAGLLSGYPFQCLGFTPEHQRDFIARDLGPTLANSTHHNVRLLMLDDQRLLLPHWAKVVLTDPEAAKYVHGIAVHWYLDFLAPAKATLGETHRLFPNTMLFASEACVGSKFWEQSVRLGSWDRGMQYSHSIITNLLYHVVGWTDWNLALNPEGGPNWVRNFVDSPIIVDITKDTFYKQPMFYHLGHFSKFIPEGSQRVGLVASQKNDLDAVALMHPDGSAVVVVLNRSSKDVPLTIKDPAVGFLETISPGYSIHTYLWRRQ

The target of this test is Lysosomal acid glucosylceramidase (Homo sapiens) (UniProt P04062). Put plainly: Glucocerebrosidase.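 Further: the screen sought inhibitors.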 Particulars: purified enzyme, resorufin glucoside fluorescence (screen aimed at inhibitors), 20 min. The method, boiled down:
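Compounds titrated against 0.2 nM normal enzyme, 30 uM resorufin beta-D-glucopyranoside substrate, citrate/phosphate buffer with taurocholate and tween-20, pH 5.9. Reaction ran 20 min at room temperature; fluorescence (Ex 548/Em 600) gave AC50.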
In the case of `Cc1nc(C)c(C(=O)C2=C(O)C(=O)N(CCCN(C)C)C2c2ccco2)s1` (centres undefined), the Potency is inactive: > 76.9 µM.

For `O=C(CC1OC(=O)c2ccccc21)Nc1ccccc1N1CCOCC1` (centres undefined), the Potency is inactive: > 76.9 µM.

Consider `Cc1cnc(NC(=O)CSc2nnc(Cc3ccccc3)n2C)s1`, for which the Potency is inactive: > 76.9 µM. In the case of `CCOc1ccc(-n2c(=O)cc(N3CCN(c4ccccc4)CC3)[nH]c2=O)cc1` it was inactive: > 76.9 µM; in that of `CCOC(=O)CSc1nnc(-c2ccco2)n1-c1ccc(C)cc1`, inactive: > 76.9 µM. The same measure for `O=S(=O)(c1cccs1)N1CCN(c2ccccn2)CC1`: inactive: > 76.9 µM; for `CC1CCCCN1C(=O)Cc1ccc(F)cc1` (centres undefined): inactive: > 76.9 µM. In the case of `COc1ccc(NC(=O)Nc2cccs2)cc1OC` it was inactive: > 76.9 µM; in that of `COc1cccc(Cn2c(Oc3cccc(C)c3)nc3c2c(=O)n(C)c(=O)n3C)c1`, inactive: > 76.9 µM. Take `O=C(O)C12CC3CC(C1)CC(n1cnc(Cl)n1)(C3)C2`: the Potency was inactive: > 76.9 µM. The same measure for `OC(c1cccc(OCc2ccccc2)c1)c1nnc(-c2ccccc2)o1` (centres undefined): inactive: > 76.9 µM; for `CCCS(=O)(=O)c1c(S(=O)(=O)CCC)c2cc(CC)ccn2c1C(=O)OC`: inactive: > 76.9 µM; for `CCOc1ccc(Cn2c(=O)oc3ccc(C)cc32)cc1OC`: inactive: > 76.9 µM. The same measure for `COc1cc2c(cc1OC)-c1cc(Nc3ccc4c(c3)OCCO4)nc(=O)n1CC2`: inactive: > 76.9 µM; for `CCOC(=O)C1CCN(CCC(=O)Nc2cccc(Cl)c2C)CC1`: inactive: > 76.9 µM. In the case of `CCOC(=O)N1CCN(S(=O)(=O)c2ccc(OC)c(Cl)c2)CC1` it was inactive: > 76.9 µM; in that of `COc1ccc2[nH]c(=O)c(CN(C(=O)NC3CCCCC3)C3CCCCC3)cc2c1`, “inactive”.

On to `NC(=O)CSc1nnc(-c2ccoc2)o1`, for which the Potency is inactive: > 76.9 µM.

As for `CCOC(=O)CSc1nnc(CNC(=O)c2cccs2)n1-c1cc(OC)ccc1OC`, the Potency was inactive: > 76.9 µM. In the case of `O=C1CN(C(=O)CCCc2c[nH]c3ccccc23)c2ccccc2N1` it was inactive: > 76.9 µM; in that of `CCSCc1nnc(SCC(=O)Nc2nc3ccccc3s2)n1C`, inactive: > 76.9 µM; in that of `COC(=O)CCC(=O)COc1ccc(OC)cc1C#N`, inactive: > 76.9 µM. In the case of `O=C(c1ccc(=O)[nH]c1)N(Cc1ccco1)C1(C(=O)NC2CCCC2)CCCCC1` it was inactive: > 76.9 µM; in that of `CCC(Sc1nc(=O)cc(N)n1-c1ccccc1)C(=O)Nc1ccc(Cl)cn1` (centres undefined), inactive: > 76.9 µM; in that of `CCOC(=O)c1ccccc1NC(=O)CSc1ncc(C(=O)OCC)c(N)n1`, inactive: > 76.9 µM. For the compound `COc1ccc(OC)c(NC(=O)C2CCN(c3ncccn3)CC2)c1`, the Potency was inactive: > 76.9 µM.

For the compound `O=C(CCN1CCOCC1)Nc1cccc(Br)c1`, the Potency entry was “inactive”. The same measure for `c1ccc(-c2nc3ccccc3c3nncn23)cc1`: inactive: > 76.9 µM.

As for `CC(C)NCC(O)COc1c(F)cc(Br)cc1F` (centres undefined), the Potency was inactive: > 76.9 µM.

In the case of `O=C(NCc1ccccc1)c1cccc(OCC(=O)N2CCN(C(=O)c3ccco3)CC2)c1`, the Potency was inactive: > 76.9 µM. As to `O=S(=O)(c1cnc[nH]1)N1CCCCCC1`, the Potency is inactive: > 76.9 µM. The same measure for `COC(=O)CSc1nc2ccccc2n1CC(=O)N(C(C)C)C(C)C`: inactive: > 76.9 µM; for `CCOC(=O)C1CCN(C(=O)c2cccc(NC(=O)C(CC)CC)c2)CC1`: inactive: > 76.9 µM. For `CC(C(=O)N1CCN(c2ccccc2)CC1)N1C(=O)C2CC=CCC2C1=O` (centres undefined), the Potency is inactive: > 76.9 µM.

`Cc1cccc(NC(=O)Cn2cnc3sc(C)c(S(=O)(=O)N4CCC(C)CC4)c3c2=O)n1`: the Potency was inactive: > 76.9 µM. In the case of `O=C(O)Cn1c(SCCOc2ccccc2)nc2ccccc21` it was inactive: > 76.9 µM.

On to `COc1ccc(CCNC(=O)CS(=O)Cc2nc(-c3cccs3)oc2C)cc1OC` (centres undefined), for which the Potency was inactive: > 76.9 µM. The same measure for `COc1cccc(-c2nnc(SCC(=O)Nc3ccc(S(N)(=O)=O)cc3)n2C)c1`: inactive: > 76.9 µM; for `COc1cccc(Cn2c(-c3cccs3)noc2=O)c1`: inactive: > 76.9 µM; for `COc1ccccc1OCc1ccc(C(=O)OCC2CCCO2)o1` (centres undefined): inactive: > 76.9 µM. Turning to `CC(=O)N1C(=O)C(=C2C=C(C)OC(C)=C2)c2ccccc21`, the Potency is inactive: > 76.9 µM.

Turning to `Cc1ccc(-n2c(SCC(=O)OC(C)C)nnc2-c2ccccn2)cc1`, the Potency is inactive: > 76.9 µM. The same measure for `Cc1nc2cc3nc(C)sc3cc2s1`: inactive: > 76.9 µM; for `COc1cc(NS(=O)(=O)c2ccc(F)cc2)c(C(=O)O)cc1OC`: inactive: > 76.9 µM; for `O=S(=O)(c1ccc(NC2CCCCC2)cc1)N1CCOCC1`: inactive: > 76.9 µM. Take `CCOC(=O)c1c(-c2cccs2)csc1NC(=O)COC(=O)c1c(C)noc1C`: the Potency is inactive: > 76.9 µM. The same measure for `CCn1nnc(-c2ccccc2NC(=O)C(F)(F)F)n1`: inactive: > 76.9 µM; for `COc1ccccc1Nc1nc(N)nc(-c2cc3ccccc3o2)n1`: inactive: > 76.9 µM. With `CC1CCCC(C)N1C(=O)COc1ccc(-c2nnco2)cc1` (centres undefined), the Potency is inactive: > 76.9 µM. The same measure for `Cc1nn2cc(-c3ccc(N)cc3)nc2s1`: inactive: > 76.9 µM. The same measure for `O=C(CSc1nnc(NC(=O)C2CCC2)s1)NC1CC1`: inactive: > 76.9 µM; for `Cc1ccc2[nH]c(=O)c(CN(CCN3CCOCC3)C(=O)Nc3ccccc3F)cc2c1`: inactive: > 76.9 µM. In the case of `CC1=C(C(N)=O)C(c2ccccn2)n2nc(SCc3ccccc3)nc2N1` (centres undefined) it was inactive: > 76.9 µM. As to `CS(=O)(=O)N(CC(=O)N1CCCCC1)C1CCCCC1`, the Potency is inactive: > 76.9 µM.

For `Cc1ccccc1NS(=O)(=O)c1ccc(NC(=O)c2ccco2)cc1`, the Potency was inactive: > 76.9 µM. The same measure for `Cc1cc(C)nc(N2CCCC(C(=O)Nc3nc4ccc(S(C)(=O)=O)cc4s3)C2)n1` (centres undefined): inactive: > 76.9 µM; for `COc1cc(C(=O)OCC(=O)N2CCCC2)cc(OC)c1OC`: inactive: > 76.9 µM. In the case of `COc1ccc(N2CCCn3c2nc2c3c(=O)n(Cc3ccccc3F)c(=O)n2C)cc1` it was inactive: > 76.9 µM; in that of `NC(=O)c1ccc(-n2nnnc2SCc2ccccc2)cc1`, inactive: > 76.9 µM.
